The source gives no read counts; variants with many changes may rest on few reads.
B1: LINE1-mini (parent)
chain: GGCAGAGCUCAACACAGCGUGGCAAAGUGGCUGUGGCUAGACUGCC

Variants of: B1
Assay: self-cleavage, relative activity (ratio to wild type); higher = more cleavage; in vitro, sequencing; the parent is a self-cleaving ribozyme

Variant	self-cleavage
GGCAGAGCUCAACACAGCGUGGCAAAUUGGCUGUCGCUAGACUACC [G27U G35C G44A]	0.06
GGCAGAGCUCAACACAACGUGGCAAAGUGGGUGUGGCUAGACCGCC [G17A C31G U43C]	0.02
GGCAGAGCUCAACACGGCGUAGCAAAGUGGCUGUGGCCAGACUGCC [A16G G21A U38C]	0.15
GGCAGAGCUCAACACAGGGUGGAAAAGUGGCUGUGGCUGGACUGCC [C18G C23A A39G]	0.05
GUCAGAGCUCAACACAGCGAGGCAAAGUGGCUAUGGCUAGACUGCU [G2U U20A G33A C46U]	0.01
GGCAGAGCUCAACACAGAGUGGCAAGGUGGCUGUGGCUAGAGUGCC [C18A A26G C42G]	0.04
GGCAGAGUUCAACACAGCGUGGCAAAGUGGCUGUGGCUGGCCGGCC [C8U A39G A41C U43G]	0.58
GCCAGAGCUCAACACUGCGUUGCAAAGUGGCUGUGGCUAGGCUGCC [G2C A16U G21U A41G]	0.02
GCCAGAGCUCAACACAGAGUGGCAAAGUAGCUGUGGCUAGACUGCC [G2C C18A G29A]	0.09
GGUCGAGCUCAACACAGCGUGGCAAAGUGGCUGGGGCUAGACUGCC [C3U A4C U34G]	0.02
AGCACAGCUCAACACAGCGUCGCAAAGUGGCUGUGACUAAACUGCC [G1A G5C G21C G36A G40A]	0.04
GGCAGAGCUCCACACCGCGUGGCAAAGUUGCUGUUGCUAGACUGCC [A11C A16C G29U G35U]	0.02
GGCUGAGCUCAACACAGCGUGGCAAUGUGGCUGGGGCUAGACUCCC [A4U A26U U34G G44C]	0.03
AGCAGAGCUCAACACAGCGUGGCAUAGGGGCUGUGGCUAGACUGCC [G1A A25U U28G]	0.07
GGCAGAGCUCAACACACCUUGGAAACGUGGCUGUGGCUAGACUGCC [G17C G19U C23A A26C]	0.45
GGCAGAGCUCAACGCGACGUGGCAAAGUGGCUGUGCCUAGACUGCC [A14G A16G G17A G36C]	0.03
GGCAGAGAUCAACACAGCGUUGCAAAGUGGCUGUAGCUAGACUGCC [C8A G21U G35A]	0.92
GGCCAAGCUCAACACAGCGUGGCAAAAUGCCUGUGGCUAGACUGCC [A4C G5A G27A G30C]	0.43
GGCAGAGCGCAACACAGCGUGGUAAAGUGGCUAUGGCUAGACUGUC [U9G C23U G33A C45U]	0.02

Variant	self-cleavage
GGUGGAUUUCAAAACAGCGUGGCAACGUGGCUGUUGCUAGACUGCC [C3U A4G G7U C8U C13A A26C G35U]	0.33
GGCCGAGCUCAACACCGCAGGGCAAACUGGCUGUGGCUAGUCUGCC [A4C A16C G19A U20G G27C A41U]	0.09
GGUAGAGCUCAAUACAUCGUGGCAAAGUGGCUGUGGCAAGACUGCC [C3U C13U G17U U38A]	0.31
GGCAGAGCCCAACACACCGUGGCAAAGUGGUUGUGGCUAGACUACC [U9C G17C C31U G44A]	0.03
GGCACAGCUCAACACAGCGUGGCAAAGUUGCUGUGGCAAGACUGCC [G5C G29U U38A]	0.11
GGCAGAGCUUAACACAGGGUGGCAAAGUGGCUGUGGGUAGACUGCC [C10U C18G C37G]	0.05
GGCCGAGCUAAACAUAGCGUGGCAAAGUGGCUGUGUCCAGACUGCC [A4C C10A C15U G36U U38C]	0.01
AGCAUAGCUCAACACAGCGUGGCCAAGUGGCUGUGGCUAGACUGCC [G1A G5U A24C]	0.13
GGCAGAGCUCAGCACAGCGUGGCAAAGAGGCUGUGGCUAGAUUGAC [A12G U28A C42U C45A]	0
GGCAGAGCACAACCCAGCGUGGCAAAGUGGCUGUGGCUAGACUGCA [U9A A14C C46A]	0.02
GGCAGAGCUCAACACAUCGUGGCAAAGUGGCCAUGGCUAGACUGCC [G17U U32C G33A]	0.08
GGCAGAGCUCAUCACAGCGUGGCAAAGUGGCUUUGUCUAGACUGCC [A12U G33U G36U]	0.02
GGCAGAGCUCAACACAGCGUAGCAAAGUGGCUGAGGGUUGACUUCC [G21A U34A C37G A39U G44U]	0.03
UGCAGAGCUCAACACAGCGUGGCAAAGCGGCUGUGGCUAUACUGCC [G1U U28C G40U]	0.07
GGCAGAGCUAAACACAGCGUGGCCAAGUGGCUGUCGCUGGACUGCC [C10A A24C G35C A39G]	0
GGCAGAGUUCAACACAGCGUGGCAAAGUGGCUGUGGCUUGACUGUC [C8U A39U C45U]	0.05
GGAAGAGCUCAACACAGCAUGGCAAAGUGGCUGUGACUAGACUGCC [C3A G19A G36A]	0.73
GGCAGAGCUCAACACAGCGUGGCGAGUUGGGUGUGGCUAGACUGUC [A24G A26G G27U C31G C45U]	0.01
GGCAGAGCUCAAGACAACCUGGCAAAGUGGCUGUGGCUAGCCUGUC [C13G G17A G19C A41C C45U]	0.01

Variant	self-cleavage
GGCAGAGCGCACGAUAGCGUGGCAAAGUGGCUGUGGCUAGACUGCC [U9G A12C C13G C15U]	0.02
GGCACAGCUUAACAAAGCGUGGCAAAGUGGCUGUGGCUAGACUGCC [G5C C10U C15A]	0.02
GGCAUAGCUAAACACAACGUGGCAAAGUGGUUGUGGCUAGACUGCC [G5U C10A G17A C31U]	0.08
GGCAGAUCUAGACACAGCGUGGCAAAGUGGCUGUGGCUAGACUGGC [G7U C10A A11G C45G]	0.01
GGCAGGGCUCAACAUACCGUGGCAAAGUGGCUGUGGCUCGACUGCC [A6G C15U G17C A39C]	0.03
GGCAGAGAUCAACACAGCGUGGCUAAGUGGCUGUGGCAAGACAGCC [C8A A24U U38A U43A]	0.09
GGCAGAGCUCAACACAGCGUGGCAAAGUGGCUGUGACUCGACUGCG [G36A A39C C46G]	0.4
GGCAGAGCACAACACAAAGUGGCAAAGUGGAUGUGGCUAGACUGAC [U9A G17A C18A C31A C45A]	0.06
AACAGAGCUCAACACAGCAUGGCAAAGUGGCUGUGGCUAGACUGCC [G1A G2A G19A]	0.08
GGCAGAGCUCAACACUGCGUGGCUUAGGGGCUGUGGCUAGACUGCC [A16U A24U A25U U28G]	0.81
GAUAGCGCUCAACACAGCGUGGCAAAGUGGCUGUGGCUAGACUGCC [G2A C3U A6C]	0.12
GCCAGAACUCAACACAGCGUUGCAAAGUGGCGGUGGCUAGACUGCC [G2C G7A G21U U32G]	0.05
GGCAUAGCUCAACACAUCGUGGCAAAGUGGCUGUGGUUAGACUGCC [G5U G17U C37U]	0.09
GGCAGAGCUCAACACAGCGUGUCAACGUGGUUGUUGCUAGACUGCC [G22U A26C C31U G35U]	0.03
GGCAGAGCUCAUCACAGUGUGGCAAAGUACCUGUGGCUAGACUGCC [A12U C18U G29A G30C]	0.51
GGCAGGGCUCAACACAGCGUGGCAAAGUGGCUGUGGCACGACUGCC [A6G U38A A39C]	0.02
GGCAGAGCUCAACACAGCGUCGCAAACGGGCUGCGGCAAGACUGCC [G21C G27C U28G U34C U38A]	0.58
GGCAGAGCUCAAUACCGCGUGGCAAAGUGGAUCUGGCUAGUCUGCC [C13U A16C C31A G33C A41U]	0.05
